{"source": "PubChem BioAssay AID504332", "about": "(National Center for Advancing Translational Sciences (NCATS), 2011)", "note": "The campaign covered roughly 350,000 compounds. About 31,000 (8.9%) were called active. The shares of active, inactive and inconclusive entries below differ from those in the screen. Calls follow the shape of the dose curve; as a rule, active = well fitted inhibition curve with a large enough effect; inconclusive = small, poorly fitted or top-dose-only effect; inactive = no such curve, though single readings can be large or run the other way. Potencies of inconclusive entries are doubtful fits and often do not repeat. % is scaled to controls: 0 for no effect and ±100 for the full control effect; potency is read from the fitted curve at half-maximal effect; tags tell the direction and shape of the fitted curve.", "data": [{"biological_target": "Histone-lysine N-methyltransferase EHMT2 (Homo sapiens) (UniProt Q96KQ7)", "sequence (Q96KQ7 whole entry, looked up)": "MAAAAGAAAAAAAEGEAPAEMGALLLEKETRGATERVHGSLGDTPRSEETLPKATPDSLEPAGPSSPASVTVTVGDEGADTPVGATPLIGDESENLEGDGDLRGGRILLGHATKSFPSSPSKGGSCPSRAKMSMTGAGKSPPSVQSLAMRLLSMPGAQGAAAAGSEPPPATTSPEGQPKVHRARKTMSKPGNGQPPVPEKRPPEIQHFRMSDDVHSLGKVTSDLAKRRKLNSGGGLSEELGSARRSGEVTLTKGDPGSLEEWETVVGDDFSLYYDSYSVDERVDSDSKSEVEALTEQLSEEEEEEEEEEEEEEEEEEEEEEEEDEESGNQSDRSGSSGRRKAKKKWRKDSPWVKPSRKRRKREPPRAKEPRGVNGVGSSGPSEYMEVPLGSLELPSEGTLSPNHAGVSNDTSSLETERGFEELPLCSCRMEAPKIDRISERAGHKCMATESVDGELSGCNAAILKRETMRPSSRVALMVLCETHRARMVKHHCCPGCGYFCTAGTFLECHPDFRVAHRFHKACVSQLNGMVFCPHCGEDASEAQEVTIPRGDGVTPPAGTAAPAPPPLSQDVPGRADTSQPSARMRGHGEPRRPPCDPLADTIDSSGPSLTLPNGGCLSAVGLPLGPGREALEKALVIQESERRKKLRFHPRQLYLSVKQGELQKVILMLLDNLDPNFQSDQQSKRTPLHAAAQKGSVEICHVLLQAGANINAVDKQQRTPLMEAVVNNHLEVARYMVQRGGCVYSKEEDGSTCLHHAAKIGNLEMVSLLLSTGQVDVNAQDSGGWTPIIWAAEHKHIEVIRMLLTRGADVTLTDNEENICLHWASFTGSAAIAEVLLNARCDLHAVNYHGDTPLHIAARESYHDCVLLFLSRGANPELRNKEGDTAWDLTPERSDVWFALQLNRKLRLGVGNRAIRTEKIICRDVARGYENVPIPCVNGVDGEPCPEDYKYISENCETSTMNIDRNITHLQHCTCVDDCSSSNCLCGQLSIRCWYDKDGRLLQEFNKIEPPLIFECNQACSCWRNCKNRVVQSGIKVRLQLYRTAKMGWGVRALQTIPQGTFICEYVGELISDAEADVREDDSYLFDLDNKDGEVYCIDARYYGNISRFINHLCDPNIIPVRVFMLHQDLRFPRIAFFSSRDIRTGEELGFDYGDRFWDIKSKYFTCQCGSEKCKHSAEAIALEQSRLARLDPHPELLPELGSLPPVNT", "assay": "qHTS Assay for Inhibitors of Histone Lysine Methyltransferase G9a; also: nearly all actives have a fitted effect of over 75% in size", "conditions": "G9a H3K9 monomethylation, AlphaScreen, 2 h; activity, negative = inhibition: at 59 µM (top of the series) unless noted", "how_it_was_run": "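G9a (20 nM) was preincubated 15 min with compound, then reacted 2 h at room temperature with 500 nM biotin-H3K9 peptide and 20 µM SAM. Monomethyl-H3K9 detected by AlphaScreen using anti-H3K9me1 antibody.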", "values": [{"compound": "Cc1cc(NC(=O)CS(=O)(=O)c2cn(Cc3cccc(F)c3)c3ccccc23)no1", "Potency": "active: 14.1 µM"}, {"compound": "O=C(O)c1ccc(Cn2c(SCc3ccc(F)cc3)nc3ccncc32)cc1", "Potency": "inactive"}, {"compound": "Cc1ccc2nc(NC(=O)CSc3nccn3Cc3ccc(F)cc3)sc2c1", "Potency": "inconclusive: 22.4 µM [inhibitor, partial curve, poor fit]"}, {"compound": "O=C(COc1ccccc1F)Nc1ccc(S(=O)(=O)NCc2ccco2)cc1", "Potency": "inactive"}, {"compound": "Cc1cccc(/C=N/NC(=O)c2cccc(Cl)c2)n1", "Potency": "inactive"}, {"compound": "CCC(C)NC(=O)c1sc2nc(C)c(C(=O)Nc3ccc(C)cc3C)c(-c3ccc(NC(C)=O)cc3)c2c1N", "note": "(stereo not given)", "Potency": "inactive"}, {"compound": "CC1C=CCC2C(=O)N(c3cc(Cl)ccc3O)C(=O)C12", "note": "(stereo not given)", "Potency": "inconclusive: 89.1 µM [inhibitor, single point]"}, {"compound": "COCCCNC(=S)N(CCO)Cc1cc2cc3c(cc2[nH]c1=O)OCO3", "Potency": "inactive"}, {"compound": "Cc1nc2ncccn2c1-c1csc(NCc2ccco2)n1", "Potency": "inconclusive: 8.91 µM [inhibitor, partial curve, poor fit]"}, {"compound": "CC(C)(C)C(=O)NCC12C=CC(O1)C1C(=O)N(c3ccccc3)C(=O)C12", "note": "(stereo not given)", "Potency": "active: 1.58 µM"}, {"compound": "COc1cccc(N2CCN(C(=O)CN3CCSc4ccccc43)CC2)c1", "Potency": "inconclusive: 35.5 µM [inhibitor, single point]"}, {"compound": "Cc1[nH]c2ccccc2c1C(=O)CN1C(=O)NC(C)(c2ccc(Cl)cc2Cl)C1=O", "note": "(stereo not given)", "Potency": "inactive"}, {"compound": "Cc1cc(F)ccc1NC(=O)C1CCC(CNS(=O)(=O)c2ccc3c(c2)CCCC(=O)N3)CC1", "note": "(stereo not given)", "Potency": "inactive"}, {"compound": "Cc1ccccc1NC(=O)c1sc2nc3c(cc2c1N)CN(Cc1ccccc1)CC3", "Potency": "inconclusive: 31.6 µM [inhibitor, partial curve, poor fit]"}, {"compound": "CC(C)c1ccc(OCCCCCN2CCOCC2)cc1", "Potency": "inconclusive: 79.4 µM [inhibitor, single point]"}, {"compound": "NNC(=O)CSc1c(-c2ccccc2)c2cc(Cl)ccc2[nH]c1=O", "activity, negative = inhibition": "inactive: 5.91% [at 2.33 µM]"}, {"compound": "CCCC(C(=O)NCCc1ccc(S(N)(=O)=O)cc1)c1ccccc1", "note": "(stereo not given)", "Potency": "inconclusive: 6.31 µM [inhibitor, partial curve, poor fit]"}, {"compound": "CSc1ccccc1NC(=O)CSc1n[nH]c(C)c1[N+](=O)[O-]", "Potency": "inconclusive: 56.2 µM [inhibitor, partial curve, poor fit]"}, {"compound": "CC(C)(C)n1nnnc1C(c1cccs1)N(Cc1cccnc1)Cc1ccco1", "note": "(stereo not given)", "Potency": "inconclusive: 56.2 µM [inhibitor, partial curve, poor fit]"}, {"compound": "Cc1ccc(S(=O)(=O)N2CCC(C(=O)NC3CC(C)(C)NC(C)(C)C3)CC2)cc1", "Potency": "inconclusive: 50.1 µM [inhibitor, partial curve, poor fit]"}, {"compound": "COc1ccccc1CNc1ncnc2c1cnn2-c1ccc(C)cc1", "Potency": "inactive"}, {"compound": "O=[N+]([O-])c1ccc(Nc2ccc(Cl)cc2)nc1", "Potency": "inactive"}, {"compound": "CCc1ccccc1Nc1nc(N)nc(CSCC(=O)c2cc(C)n(C)c2C)n1", "activity, negative = inhibition": "inconclusive: -68.9% [inhibitor]"}, {"compound": "O=C1Nc2cc(C(=O)NCCCN3CCOCC3)ccc2S/C1=C/c1ccccc1F", "Potency": "inconclusive: 31.6 µM [inhibitor, partial curve, poor fit]"}, {"compound": "O=C(Nc1cc2c(cc1C(=O)c1ccccc1Br)OCCO2)c1cccc(Cl)c1", "Potency": "inactive"}, {"compound": "COCCn1c(SCC(=O)N2CCCCC2)nc2ccccc2c1=O", "Potency": "inconclusive: 6.31 µM [inhibitor, single point]"}, {"compound": "COc1ccc2c(c1)c1c(c(=O)n(-c3cccc(C)c3)c(=O)n1Cc1cccc(Cl)c1)n2C", "Potency": "inactive"}, {"compound": "Cn1c(/C=C/N(Cc2ccccc2)c2ccccc2)c([N+](=O)[O-])c(=O)n(C)c1=O", "Potency": "inconclusive: 31.6 µM [inhibitor, full curve, poor fit]"}, {"compound": "O=C(CSc1nncs1)Nc1nnc(-c2ccccc2)o1", "activity, negative = inhibition": "inconclusive: -91.2% [inhibitor] [at 12.7 µM]"}, {"compound": "C=CCn1c(C)cc(C(=O)CN2NS(=O)(=O)c3ccccc3C2=O)c1C", "Potency": "inconclusive: 44.7 µM [inhibitor, partial curve]"}, {"compound": "c1ccc2c(c1)N1CCCN=C1N2CCN1CCCCC1", "Potency": "inconclusive: 70.8 µM [inhibitor, single point]"}, {"compound": "O=C(C[n+]1cc(Br)cc2ccccc21)c1ccc(Cl)cc1", "Potency": "active: 50.1 µM"}, {"compound": "O=C1CN(C(=O)CSc2nnc(-c3ccccc3)n2Cc2ccc3c(c2)OCO3)c2ccccc2N1", "Potency": "inconclusive: 22.4 µM [inhibitor, single point]"}, {"compound": "COc1ccccc1C(=O)N1CCN(c2cccc(C(F)(F)F)c2)CC1", "Potency": "inconclusive: 25.1 µM [inhibitor, single point]"}, {"compound": "Cc1nc(-n2nc(C)c(CCC(C)C)c2C)sc1C(=O)Nc1ccc(Cl)cc1", "Potency": "inactive"}, {"compound": "CC1(C)Cc2c(C#N)c(N)sc(=S)c2CS1", "Potency": "active: 25.1 µM"}, {"compound": "Cc1ccc(C(=O)C(C)OC(=O)c2cc3cc([N+](=O)[O-])ccc3oc2=O)cc1", "note": "(stereo not given)", "Potency": "inconclusive: 28.2 µM [inhibitor, single point]"}, {"compound": "CCN(CC)S(=O)(=O)c1ccc(N2CCN(S(=O)(=O)c3ccc4c(c3)OCCO4)CC2)nc1", "Potency": "inconclusive: 89.1 µM [inhibitor, single point]"}, {"compound": "COc1ccc(N2C(=O)CSC23C(=O)N(Cc2cccc(F)c2)c2ccccc23)cc1Cl", "note": "(stereo not given)", "Potency": "inconclusive: 3.55 µM [inhibitor, full curve, poor fit]"}, {"compound": "N#Cc1c(NC(=O)C2CCCO2)sc2c1CCCCCC2", "note": "(stereo not given)", "Potency": "inconclusive: 28.2 µM [inhibitor, single point]"}, {"compound": "O=C(COc1ccccc1)Nc1ccc2c(c1)nc1n2CCSC1", "Potency": "inconclusive: 79.4 µM [inhibitor, single point]"}, {"compound": "COc1ccccc1-c1nnc(NC(=O)c2ccc(S(=O)(=O)N3CCOCC3)cc2)o1", "activity, negative = inhibition": "inactive: 76.8% [at 12.7 µM]"}, {"compound": "CC(C)C1Oc2ccccc2N(CC(=O)N(Cc2ccncc2)Cc2ccco2)C1=O", "note": "(stereo not given)", "Potency": "inconclusive: 22.4 µM [inhibitor, single point]"}, {"compound": "COc1cc(/C=C2/SC(=S)N(CC(=O)NC(C)(C)C)C2=O)cc(OC)c1OC", "Potency": "inconclusive: 89.1 µM [inhibitor, single point]"}, {"compound": "COc1ccccc1CN1CCNC(=O)C1CC(=O)NC1CCCCCC1", "note": "(stereo not given)", "Potency": "active: 15.8 µM"}, {"compound": "CN(C)c1cccc(NC(=O)CCc2ccccc2)c1", "Potency": "active: 3.16 µM"}, {"compound": "Cc1ccc(S(=O)(=O)NC(C)C(c2cccs2)N2CCN(c3ccccc3)CC2)cc1", "note": "(stereo not given)", "Potency": "inconclusive: 25.1 µM [inhibitor, single point]"}, {"compound": "CCOC(=O)c1c(S(=O)(=O)N2CCCC(C(=O)NCc3ccccc3OC)C2)c(C)n(C)c1C", "note": "(stereo not given)", "Potency": "inactive"}, {"compound": "CCc1nc(SC)ncc1C(=O)N1CCN(c2cc(C)ccc2C)CC1", "Potency": "inactive"}, {"compound": "CC(C)CC(=O)Nc1nnc(CSCc2ccc(F)cc2)s1", "Potency": "inconclusive: 79.4 µM [inhibitor, single point]"}, {"compound": "O=C(c1ccc(Cl)c(S(=O)(=O)N2CCCCCC2)c1)N1CCN(c2ccccn2)CC1", "Potency": "inconclusive: 14.1 µM [inhibitor, partial curve, poor fit]"}, {"compound": "COc1ccc(CCNCc2ccc3c(c2)n(C)c(=O)n3C)cc1OC", "Potency": "inactive"}, {"compound": "CC(C)(CO)NC(=O)c1ccc2c(c1)C(=O)c1ccccc1-2", "Potency": "inactive"}, {"compound": "CCOc1ccc(-n2c(-c3ccc(Br)cc3)c[n+]3c2CCCCC3)cc1", "Potency": "active: 1.12 µM"}, {"compound": "COC(=O)c1c(N)sc(C(=O)N2CCOCC2)c1C", "activity, negative = inhibition": "inactive: -0.384% [at 12.7 µM]"}, {"compound": "O=C1CC(c2ccccc2)n2nc(NS(=O)(=O)c3ccccc3)nc2N1", "note": "(stereo not given)", "Potency": "inconclusive: 2.82 µM [inhibitor, partial curve, poor fit]"}, {"compound": "Cc1nn(C)c2c1c(-c1ccccc1)cc(=O)n2CC(=O)NC(C)C", "Potency": "inactive"}, {"compound": "O=[N+]([O-])c1cccc(-c2nnc3ccc4ccccc4n23)c1", "Potency": "active: 14.1 µM"}, {"compound": "COc1ccc(C2NC(=O)C(C#N)=C(S)N2c2ccccc2)cc1OC", "note": "(stereo not given)", "Potency": "active: 44.7 µM"}, {"compound": "CCc1ccccc1NC(=O)CSc1nc2c(oc3ccccc32)c(=O)n1C", "Potency": "inactive"}, {"compound": "COc1ccc2c(c1)C(=NNC(=O)c1ccccn1)c1cc(OC)ccc1-2", "Potency": "inconclusive: 14.1 µM [inhibitor, partial curve, poor fit]"}, {"compound": "CCN1CCN(c2ccc(NC(=O)COc3ccc([N+](=O)[O-])cc3)cc2)CC1", "Potency": "inconclusive: 28.2 µM [inhibitor, partial curve, poor fit]"}, {"compound": "Cc1csc(NC(=O)CSc2nnc(NC(=O)COc3ccc(Cl)cc3)s2)n1", "Potency": "inconclusive: 31.6 µM [inhibitor, single point]"}, {"compound": "CCOc1ccc(N2CC(NC(=O)C3CC3)CC2=O)cc1", "note": "(stereo not given)", "Potency": "inactive"}, {"compound": "O=C(COc1ccccc1Cl)Nc1ccc(CN2CCCCC2)cc1", "Potency": "inconclusive: 14.1 µM [inhibitor, partial curve, poor fit]"}, {"compound": "COc1ccc(NC(=O)Cn2cc(S(=O)(=O)Cc3ccccc3)c3ccccc32)c(OC)c1", "Potency": "inconclusive: 56.2 µM [inhibitor, partial curve, poor fit]"}, {"compound": "Cn1c(-c2cccc([N+](=O)[O-])c2)cnc1NCc1cccc(F)c1", "Potency": "active: 25.1 µM"}, {"compound": "N=C1/C(=C/c2cccs2)C(=O)N=C2SN=C(SCc3ccccc3)N12", "activity, negative = inhibition": "inactive: -7.77% [at 12.7 µM]"}, {"compound": "CCCn1c2ccc(F)cc2c2nnc(SCCN(CC)CC)nc21", "Potency": "inactive"}, {"compound": "C#CCOCCOCCOCCNc1nc(N2CCN(C(=O)[C@H](CCCCN)n3cc([C@@H](N)CC(C)C)nn3)CC2)nc(N2CCN(C(=O)[C@H](Cc3cc4ccccc4[nH]3)n3cc([C@@H](N)Cc4ccc(O)cc4)nn3)CC2)n1", "Potency": "inactive"}]}]}
